Assay results reported in ChEMBL document CHEMBL1149085, “Potential utility of histamine H3 receptor antagonist pharmacophore in antipsychotics” (Bioorg Med Chem Lett, 2009).

Columns and labels:
Experiment in all cases: biochemical
[1] = target: Histamine H1 receptor (Homo sapiens, UniProt P35367); format: cell-based, CHO
[2] = target: D(1B) dopamine receptor (Homo sapiens, UniProt P21918)
[3] = target: Histamine H3 receptor (Homo sapiens, UniProt Q9Y5N1); format: cell-based, HEK293
[4] = target: D(3) dopamine receptor (Homo sapiens, UniProt P35462)
D(3) dopamine receptor, sequence (P35462 whole entry): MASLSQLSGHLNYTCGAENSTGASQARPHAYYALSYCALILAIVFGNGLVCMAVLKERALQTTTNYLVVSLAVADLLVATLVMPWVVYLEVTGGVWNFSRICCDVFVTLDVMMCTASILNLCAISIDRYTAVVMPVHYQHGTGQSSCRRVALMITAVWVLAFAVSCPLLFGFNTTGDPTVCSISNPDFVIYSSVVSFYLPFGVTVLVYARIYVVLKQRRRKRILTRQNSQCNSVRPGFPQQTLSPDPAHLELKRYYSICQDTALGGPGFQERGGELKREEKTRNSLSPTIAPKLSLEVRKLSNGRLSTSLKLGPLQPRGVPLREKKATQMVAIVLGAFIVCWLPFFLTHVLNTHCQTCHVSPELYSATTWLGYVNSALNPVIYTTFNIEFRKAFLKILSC

[5] = target: D(2) dopamine receptor (Homo sapiens, UniProt P14416); format: cell-based, CHO
D(2) dopamine receptor, sequence (P14416 whole entry): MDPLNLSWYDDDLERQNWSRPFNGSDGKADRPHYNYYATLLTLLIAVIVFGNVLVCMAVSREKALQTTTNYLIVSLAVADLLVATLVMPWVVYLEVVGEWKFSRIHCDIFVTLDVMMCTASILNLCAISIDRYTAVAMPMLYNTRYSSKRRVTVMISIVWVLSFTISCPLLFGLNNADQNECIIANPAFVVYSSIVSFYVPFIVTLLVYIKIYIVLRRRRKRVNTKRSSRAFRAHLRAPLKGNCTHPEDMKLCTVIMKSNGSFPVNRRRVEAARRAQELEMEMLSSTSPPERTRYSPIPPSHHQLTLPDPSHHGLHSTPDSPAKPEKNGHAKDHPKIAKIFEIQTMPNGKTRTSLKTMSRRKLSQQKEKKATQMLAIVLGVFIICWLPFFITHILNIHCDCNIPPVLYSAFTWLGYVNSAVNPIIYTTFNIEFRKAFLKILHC

Histamine H1 receptor, sequence (P35367 whole entry): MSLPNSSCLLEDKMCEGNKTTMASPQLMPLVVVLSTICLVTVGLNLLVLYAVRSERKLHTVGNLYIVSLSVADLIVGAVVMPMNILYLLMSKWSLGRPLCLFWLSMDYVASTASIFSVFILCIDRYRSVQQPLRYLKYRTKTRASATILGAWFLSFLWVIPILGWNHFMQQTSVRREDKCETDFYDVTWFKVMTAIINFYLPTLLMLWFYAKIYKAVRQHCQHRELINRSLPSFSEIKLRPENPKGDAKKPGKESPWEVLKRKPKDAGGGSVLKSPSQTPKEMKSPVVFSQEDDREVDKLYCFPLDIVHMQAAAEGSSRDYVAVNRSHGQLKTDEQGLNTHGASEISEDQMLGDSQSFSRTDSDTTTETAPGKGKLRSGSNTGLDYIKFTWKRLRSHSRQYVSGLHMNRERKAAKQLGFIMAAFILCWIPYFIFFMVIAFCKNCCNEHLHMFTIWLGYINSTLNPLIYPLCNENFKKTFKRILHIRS
D(1B) dopamine receptor, sequence (P21918 whole entry): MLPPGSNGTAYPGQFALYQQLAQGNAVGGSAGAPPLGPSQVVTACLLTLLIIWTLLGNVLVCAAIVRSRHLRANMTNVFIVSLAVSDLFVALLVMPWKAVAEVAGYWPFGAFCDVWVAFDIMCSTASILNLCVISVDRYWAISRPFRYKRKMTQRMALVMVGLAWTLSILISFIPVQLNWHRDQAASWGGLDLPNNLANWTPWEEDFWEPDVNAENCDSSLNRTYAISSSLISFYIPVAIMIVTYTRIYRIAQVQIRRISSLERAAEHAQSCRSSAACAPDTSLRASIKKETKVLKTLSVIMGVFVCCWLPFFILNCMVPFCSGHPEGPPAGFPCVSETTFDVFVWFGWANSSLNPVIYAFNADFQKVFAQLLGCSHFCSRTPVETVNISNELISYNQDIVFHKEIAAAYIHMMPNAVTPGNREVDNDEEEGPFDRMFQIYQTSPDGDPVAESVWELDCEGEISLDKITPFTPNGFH
Histamine H3 receptor, sequence (Q9Y5N1 whole entry): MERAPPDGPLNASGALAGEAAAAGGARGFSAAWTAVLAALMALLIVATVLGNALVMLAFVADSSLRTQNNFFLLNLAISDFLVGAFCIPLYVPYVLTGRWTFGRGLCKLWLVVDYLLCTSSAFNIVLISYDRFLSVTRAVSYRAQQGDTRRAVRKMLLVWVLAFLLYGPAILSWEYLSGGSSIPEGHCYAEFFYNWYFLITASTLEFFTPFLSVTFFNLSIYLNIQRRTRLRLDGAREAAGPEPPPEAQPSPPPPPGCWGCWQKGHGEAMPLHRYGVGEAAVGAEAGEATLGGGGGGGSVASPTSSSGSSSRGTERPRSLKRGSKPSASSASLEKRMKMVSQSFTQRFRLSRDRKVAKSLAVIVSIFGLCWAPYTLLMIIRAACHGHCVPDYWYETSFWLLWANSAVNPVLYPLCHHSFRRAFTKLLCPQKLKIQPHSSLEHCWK

Row | SMILES | Ki [1] | also measured
1 | O=C(OCCN1CCN(CCCN2c3ccccc3Sc3ccc(C(F)(F)F)cc32)CC1)c1ccc(OCCCN2CCCCC2)cc1 | 390 nM | –
2 | Clc1ccc2c(c1)N=C(N1CCN(Cc3ccc(OCCCN4CCCCC4)cc3)CC1)c1ccccc1N2 | 190 nM | –
3 | CN(C)CC/C=C1/c2ccccc2Sc2ccc(Cl)cc21 [CHLORPROTHIXENE] | 3.75 nM | –
4 | CN1CCN(C2=Nc3cc(Cl)ccc3Nc3ccccc32)CC1 [CLOZAPINE] | – | Ki [3]: > 1000 nM
5 | CNCCCC12CCC(c3ccccc31)c1ccccc12 [MAPROTILINE] | – | Ki [4]: 504 nM; Ki [5]: 665 nM; Ki [2]: 429 nM; Ki [3]: > 1000 nM

The next lines start with results.

Row | Ki [1] | SMILES | also measured
6 | 559 nM | CN(CCC=C1c2ccccc2CCc2ccccc21)C(=O)Cc1ccc(OCCCN2CCCCC2)cc1 | –
7 | 79 nM | CN(CCC=C1c2ccccc2CCc2ccccc21)Cc1ccc(OCCCN2CCCCC2)cc1 | –
8 | 205 nM | CN(CCCN1c2ccccc2Sc2ccc(Cl)cc21)Cc1ccc(OCCCN2CCCCC2)cc1 | –
9 | 686 nM | CN(CCC=C1c2ccccc2CCc2ccccc21)C(=O)c1ccc(OCCCN2CCCCC2)cc1 | –
10 | 40 nM | CN(CCCC12CCC(c3ccccc31)c1ccccc12)Cc1ccc(OCCCN2CCCCC2)cc1 | –
11 | 295 nM | CN(CC/C=C1\c2ccccc2Sc2ccc(Cl)cc21)Cc1ccc(OCCCN2CCCCC2)cc1 | Ki [2]: 297 nM
